Tests used:
SpNanA = SpNanA (Streptococcus pneumoniae, UniProt P62575); assay: Sialidase inhibition assay (Example 7); assay type: biochemical; conditions: 2,7-anhydro-sialic acids; substrate Neu5Acα2-3GalβpNP; read-out: IC50 against SpNanA
SpNanB = SpNanB (Streptococcus pneumoniae serotype 4, UniProt Q54727, E68D/K536E/K577E/N393D/S59P); assay: Hydrolysis of 2,7-anhydro-sialic acids by SpNanB; conditions: same condition used for the hydrolysis of 2,7-anhydro-Neu5Ac
Text: It was previously reported that SpNanB, similar to the leech intramolecular trans-sialidase, could have 2,7-anhydro-Neu5Ac hydrolysis activity (see, Xu, et al. J. Mol. Biol. 2008, 384, 436-449). […] However, this 2,7-anhydro-Neu5Ac hydrolysis hypothesis was never directly confirmed by followed up experiments, probably due to the limited access of the 2,7-anhydro-Neu5Ac substrate. We confirmed the 2,7-anhydro-Neu5Ac hydrolysis activity of SpNanB by directly treating 2,7-anhydro-Neu5Ac with SpNanB. In the presence of SpNanB (1.0 mg/mL), 2,7-anhydro-Neu5Ac could be converted to Neu5Ac in an estimated yield of 80% based on TLC after incubating in 37° C. for 24 h. Therefore, SpNanB catalyzes the formation of 2,7-anhydro-sialic acid which can be hydrolyzed slowly by SpNanB to form sialic acid.
The 2,7-anhydro-Neu5Ac hydrolysis activity of SpNanB is a concern since SpNanB might hydrolyze the 2,7-anhydro-Neu5cyclohexyl inhibitor.

O=C(N[C@H]1[C@H]2O[C@@](C(=O)O)(C[C@@H]1O)O[C@@H]2[C@H](O)CO)C(F)(F)F [2-2, 2,7-Anhydro-3,5-dideoxy-5-trifluoroacetamido-α-D-glycero-D-galacto-non-2-ulopyranosonic acid]
IC50 (SpNanA): 145 ± 16 µM

O=C(O)[C@@]12C[C@@H](O)[C@@H](NC3CCCCC3)C(O1)[C@@H]([C@H](O)CO)O2 [2-4]
Hydrolysis by SpNanB (in words) (SpNanB): no hydrolysis activity was observed

— patent publication US11325936B2, “Sialidase inhibitors and preparation thereof” (The Regents of the University of California, priority 2017, dated 2022)
